According to the BET-seq Pho4 binding data (Le et al. 2018):
The other results are listed elsewhere or left out. These are noisy estimates, calculated here from bound and input reads.

Target: T1, Pho4 (S. cerevisiae) (UniProt P07270)
T1 sequence: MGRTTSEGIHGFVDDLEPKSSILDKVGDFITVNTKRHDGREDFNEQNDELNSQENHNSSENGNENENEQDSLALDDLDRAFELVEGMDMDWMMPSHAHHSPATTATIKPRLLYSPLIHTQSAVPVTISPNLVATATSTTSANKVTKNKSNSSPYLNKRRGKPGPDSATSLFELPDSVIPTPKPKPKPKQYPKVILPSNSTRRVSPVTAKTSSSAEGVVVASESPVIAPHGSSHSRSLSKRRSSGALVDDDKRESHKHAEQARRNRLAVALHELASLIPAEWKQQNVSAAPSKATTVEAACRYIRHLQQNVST
Assay: relative binding free energy (BET-seq); higher = weaker binding
Settings: reference: library average

Sequence	relative binding free energy
TCGGTCACGTGTAGTG	0.12 kcal/mol
ATCCGCACGTGTGGTT	0.01 kcal/mol
GGTAGCACGTGAATAT	0.16 kcal/mol
GGTGTCACGTGGATAG	0.02 kcal/mol
CGTGGCACGTGTCTGG	0.03 kcal/mol
TAAGGCACGTGGCTCG	-0.09 kcal/mol
TTGGTCACGTGGCTTC	0.05 kcal/mol
TGTTTCACGTGGTTCC	0.29 kcal/mol
GATGGCACGTGTTTAG	-0.02 kcal/mol
AAATGCACGTGGGTGG	-0.23 kcal/mol
GGTAACACGTGCGGGG	0.05 kcal/mol
GATAGCACGTGTTGCT	0.01 kcal/mol
TATTACACGTGAAGGG	0.46 kcal/mol
ATGTACACGTGAAATG	0.16 kcal/mol
GGAGTCACGTGCCGGG	-0.11 kcal/mol
TGGCTCACGTGTATAG	0.17 kcal/mol
CATGGCACGTGTTGCT	-0.03 kcal/mol
TAAATCACGTGTTAGG	0.14 kcal/mol
TGGGGCACGTGTACCG	-0.17 kcal/mol
ATACACACGTGGGTGG	-0.13 kcal/mol
AGCTGCACGTGATGGG	0.11 kcal/mol
TGGAGCACGTGCGAGA	-0.06 kcal/mol
CCTGTCACGTGGTGAG	-0.01 kcal/mol

Sequence	relative binding free energy
GTTGCCACGTGGCGGT	-0.04 kcal/mol
GGGTTCACGTGTCCTT	0.48 kcal/mol
CGTGACACGTGATTGG	0.12 kcal/mol
TTGTTCACGTGGTATA	0.27 kcal/mol
CTTGGCACGTGGTTTT	-0.24 kcal/mol
TGTCTCACGTGGGAGT	0.08 kcal/mol
TGTGACACGTGAGTGG	0.19 kcal/mol
GTAAGCACGTGTAAAG	0.12 kcal/mol
CGCGTCACGTGTTGTG	0.09 kcal/mol
CTTAGCACGTGTGTTG	-0.14 kcal/mol
GTTTGCACGTGGTGTG	0.03 kcal/mol
TATTTCACGTGCATTG	0.25 kcal/mol
AGACGCACGTGGGGGC	-0.23 kcal/mol
TGCGGCACGTGGTGCA	-0.14 kcal/mol
AGGGACACGTGGGGCT	-0.02 kcal/mol
GTCGACACGTGGGGGC	-0.03 kcal/mol
TTTGGCACGTGTATTC	-0.03 kcal/mol
TTCGACACGTGGGTTG	-0.2 kcal/mol
GGTCGCACGTGTCGGT	0 kcal/mol
CAGATCACGTGGTTTT	0.18 kcal/mol
TTTCGCACGTGGGAAA	0.08 kcal/mol
GCGAGCACGTGTTGGA	0.11 kcal/mol
TAGGACACGTGAAGTG	0.14 kcal/mol

Sequence	relative binding free energy
ACTGTCACGTGTGCGT	0.08 kcal/mol
ATGTTCACGTGTAAAG	0.21 kcal/mol
TTCAACACGTGGTAGG	-0.14 kcal/mol
GGGATCACGTGGGCGA	0 kcal/mol
GCTGGCACGTGGGTTG	-0.17 kcal/mol
GATATCACGTGTTGAT	0.23 kcal/mol
GGAAACACGTGGAGGT	-0.01 kcal/mol
GGGTACACGTGGAAGG	0.18 kcal/mol
TGTTTCACGTGGCTGC	0.25 kcal/mol
GTAGTCACGTGTTTGT	0.09 kcal/mol
GCTTGCACGTGTTAGG	0.05 kcal/mol
TGATTCACGTGGTTGC	0.24 kcal/mol
ATGTTCACGTGAATAA	0.38 kcal/mol
ACGTTCACGTGGGTCG	0.07 kcal/mol
GATGCCACGTGTGGGT	-0.01 kcal/mol
TGAAGCACGTGGTATG	-0.27 kcal/mol
GGGTGCACGTGTACGG	0.06 kcal/mol
ATGTTCACGTGATTAC	0.37 kcal/mol
TCGGTCACGTGGCATG	0 kcal/mol
TGTAACACGTGCGGGA	-0.01 kcal/mol
AATGTCACGTGGGGGG	0.04 kcal/mol
TAGGTCACGTGTATGT	0.07 kcal/mol
CAGGCCACGTGTTTGG	-0.06 kcal/mol

Sequence	relative binding free energy
CTTTCCACGTGGTGGG	0.04 kcal/mol
CTGAGCACGTGCTGTT	-0.09 kcal/mol
GTATGCACGTGTATAG	-0.11 kcal/mol
TGAGTCACGTGTTGAG	0.04 kcal/mol
TTTTCCACGTGCTAGT	0.01 kcal/mol
GGCGACACGTGGCAGG	0.01 kcal/mol
ATGGTCACGTGACGAG	0.13 kcal/mol
TAGGTCACGTGCGTGG	-0.04 kcal/mol
TCTTCCACGTGTAGTG	0.23 kcal/mol
TTTATCACGTGTTAGT	0.15 kcal/mol
ACAGTCACGTGTTAGG	0.12 kcal/mol
AGATGCACGTGGTTTT	0 kcal/mol
TTCTTCACGTGTGCAT	0.31 kcal/mol
GTGAGCACGTGTAGGC	-0.1 kcal/mol
GGGGGCACGTGAGTAC	0.15 kcal/mol
CGGAGCACGTGTGAGT	-0.03 kcal/mol
GCTTTCACGTGGGTAA	0.3 kcal/mol
CTGATCACGTGGTGGG	0.09 kcal/mol
GTTGCCACGTGAGGGG	0.11 kcal/mol
GGAATCACGTGTAATT	0.32 kcal/mol
TTGGTCACGTGTGCAG	-0.06 kcal/mol
GTGGCCACGTGGGATG	-0.09 kcal/mol
ATGTGCACGTGTTTCG	0.03 kcal/mol

Sequence	relative binding free energy
GGATTCACGTGCGGAT	0.24 kcal/mol
TGCGTCACGTGTGGAG	0.07 kcal/mol
GTTGACACGTGCAGGA	0.02 kcal/mol
ATTTTCACGTGAGAAG	0.44 kcal/mol
TGGGGCACGTGAACGC	0.07 kcal/mol
TGCCGCACGTGATGGG	-0.04 kcal/mol
TGAATCACGTGGTATG	0.09 kcal/mol
TGTAGCACGTGTTATA	-0.18 kcal/mol
CATTGCACGTGGGGTC	-0.09 kcal/mol
GTGTGCACGTGCTTGC	-0.03 kcal/mol
TGGGACACGTGGGCGT	0 kcal/mol
GTGTACACGTGTAGAA	0.12 kcal/mol
CGTGTCACGTGTGGCA	0.11 kcal/mol
CTTTGCACGTGGGTAC	-0.12 kcal/mol
GAAGTCACGTGGAGGT	0.21 kcal/mol
GTGTACACGTGTACTG	0.11 kcal/mol
TCGTTCACGTGGTTGA	0.14 kcal/mol
TGTTGCACGTGGCATT	-0.09 kcal/mol
TTTCGCACGTGTGTCA	0.07 kcal/mol
TTAATCACGTGATTTA	0.18 kcal/mol
AGTCTCACGTGTGTGA	0.2 kcal/mol
ATGTACACGTGAAATT	0.53 kcal/mol
AAGGGCACGTGTAGTA	0.01 kcal/mol
